Measurements published in PMC12820563.
The other results are listed elsewhere or left out. The list includes weakly bound sequences.

Target: T1, MBP-FoxP3dN (UniProt Q99JB6)
T1 sequence: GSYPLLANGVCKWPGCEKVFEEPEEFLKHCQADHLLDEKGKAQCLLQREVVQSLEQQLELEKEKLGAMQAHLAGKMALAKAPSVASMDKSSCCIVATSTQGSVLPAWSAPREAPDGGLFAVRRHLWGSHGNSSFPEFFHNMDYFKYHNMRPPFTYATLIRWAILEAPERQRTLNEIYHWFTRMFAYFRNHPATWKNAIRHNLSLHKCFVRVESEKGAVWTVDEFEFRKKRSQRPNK
Test: PD-seq (MBP pull-down with sequencing)
Conditions: 20 mM Tris-HCl pH 7.5, 100 mM NaCl, 1.5 mM MgCl2, 0.4 uM protein, 0.1 uM dsDNA library, 30 min, room temperature, amylose pull-down; high values mean tight binding; double strand, one strand shown

Sequence | binding signal (RPM ratio (pull-down/input))
GATGATTGTTCTCCCAGCTGATGAATTAGATGCGTCGAGTAAACAAATTTTCCTAATCTTTCTGTTCAAGCGCCATCTAC | 2.24
GATGATTGTTCTCCCAGCTGATGAATTGTTGCAATCGAGTAAACAAATTTTCCTAATCTTTCTGTTCAAGCGCCATCTAC | 5.54
GATGATTGTTCTCCCAGCTGATGAATTCATATGGTCGAGTAAACAAATTTTCCTAATCTTTCTGTTCAAGCGCCATCTAC | 0.675
GATGATTGTTCTCCCAGCTGATGAATTAAGTCGTTCGAGTAAACAAATTTTCCTAATCTTTCTGTTCAAGCGCCATCTAC | 0.672
GATGATTGTTCTCCCAGCTGATGAATTAGAGTTTTCGAGTAAACAAATTTTCCTAATCTTTCTGTTCAAGCGCCATCTAC | 0.705
GATGATTGTTCTCCCAGCTGATGAATTACGGCATTCGAGTAAACAAATTTTCCTAATCTTTCTGTTCAAGCGCCATCTAC | 5.15
GATGATTGTTCTCCCAGCTGATGAATTGCTGAAATCGAGTAAACAAATTTTCCTAATCTTTCTGTTCAAGCGCCATCTAC | 0.451
GATGATTGTTCTCCCAGCTGATGAATTTGGTATATCGAGTAAACAAATTTTCCTAATCTTTCTGTTCAAGCGCCATCTAC | 2.5
GATGATTGTTCTCCCAGCTGATGAATTGGTTTGATCGAGTAAACAAATTTTCCTAATCTTTCTGTTCAAGCGCCATCTAC | 1.11
GATGATTGTTCTCCCAGCTGATGAATTAGATAATTCGAGTAAACAAATTTTCCTAATCTTTCTGTTCAAGCGCCATCTAC | 0.369
GATGATTGTTCTCCCAGCTGATGAATTAGTGGTATCGAGTAAACAAATTTTCCTAATCTTTCTGTTCAAGCGCCATCTAC | 1.83
GATGATTGTTCTCCCAGCTGATGAATTCCCTAACTCGAGTAAACAAATTTTCCTAATCTTTCTGTTCAAGCGCCATCTAC | 0.266
GATGATTGTTCTCCCAGCTGATGAATTGCACGCCTCGAGTAAACAAATTTTCCTAATCTTTCTGTTCAAGCGCCATCTAC | 1.28
GATGATTGTTCTCCCAGCTGATGAATTCCCTGCCTCGAGTAAACAAATTTTCCTAATCTTTCTGTTCAAGCGCCATCTAC | 0.312
GATGATTGTTCTCCCAGCTGATGAATTACAGATATCGAGTAAACAAATTTTCCTAATCTTTCTGTTCAAGCGCCATCTAC | 0.486
GATGATTGTTCTCCCAGCTGATGAATTGGTCGTCTCGAGTAAACAAATTTTCCTAATCTTTCTGTTCAAGCGCCATCTAC | 0.687

Sequence | binding signal (RPM ratio (pull-down/input))
GATGATTGTTCTCCCAGCTGATGAATTGCTACTGTCGAGTAAACAAATTTTCCTAATCTTTCTGTTCAAGCGCCATCTAC | 0.785
GATGATTGTTCTCCCAGCTGATGAATTCGCCGATTCGAGTAAACAAATTTTCCTAATCTTTCTGTTCAAGCGCCATCTAC | 0.306
GATGATTGTTCTCCCAGCTGATGAATTTAAGTATTCGAGTAAACAAATTTTCCTAATCTTTCTGTTCAAGCGCCATCTAC | 1.31
GATGATTGTTCTCCCAGCTGATGAATTTACTATTTCGAGTAAACAAATTTTCCTAATCTTTCTGTTCAAGCGCCATCTAC | 1.19
GATGATTGTTCTCCCAGCTGATGAATTGGATCAATCGAGTAAACAAATTTTCCTAATCTTTCTGTTCAAGCGCCATCTAC | 0.26
GATGATTGTTCTCCCAGCTGATGAATTAGCTCGCTCGAGTAAACAAATTTTCCTAATCTTTCTGTTCAAGCGCCATCTAC | 0.272
GATGATTGTTCTCCCAGCTGATGAATTACTCCTTTCGAGTAAACAAATTTTCCTAATCTTTCTGTTCAAGCGCCATCTAC | 0.324
GATGATTGTTCTCCCAGCTGATGAATTCTGCGAGTCGAGTAAACAAATTTTCCTAATCTTTCTGTTCAAGCGCCATCTAC | 1.09
GATGATTGTTCTCCCAGCTGATGAATTGATCATTTCGAGTAAACAAATTTTCCTAATCTTTCTGTTCAAGCGCCATCTAC | 0.757
GATGATTGTTCTCCCAGCTGATGAATTGACGTGCTCGAGTAAACAAATTTTCCTAATCTTTCTGTTCAAGCGCCATCTAC | 0.454
GATGATTGTTCTCCCAGCTGATGAATTCCCGATTTCGAGTAAACAAATTTTCCTAATCTTTCTGTTCAAGCGCCATCTAC | 0.331
GATGATTGTTCTCCCAGCTGATGAATTGCATGAATCGAGTAAACAAATTTTCCTAATCTTTCTGTTCAAGCGCCATCTAC | 0.753
GATGATTGTTCTCCCAGCTGATGAATTAGCGGCTTCGAGTAAACAAATTTTCCTAATCTTTCTGTTCAAGCGCCATCTAC | 0.415
GATGATTGTTCTCCCAGCTGATGAATTTCCTGTATCGAGTAAACAAATTTTCCTAATCTTTCTGTTCAAGCGCCATCTAC | 0.428
GATGATTGTTCTCCCAGCTGATGAATTCTCAATCTCGAGTAAACAAATTTTCCTAATCTTTCTGTTCAAGCGCCATCTAC | 0.25
GATGATTGTTCTCCCAGCTGATGAATTCGAGTTATCGAGTAAACAAATTTTCCTAATCTTTCTGTTCAAGCGCCATCTAC | 0.746
